Measurements published in publication PMC4336329 (PLoS ONE, 2015).
In all, about 310,000 compounds went through this assay and about 14,000 (4.5%) showed an effect of 50% or more. Effects have a minus sign here. The list shows a part of the results.

Each molecule was assayed against human ether-à-go-go-related gene (hERG) potassium channel (human, UniProt Q12809) (assay: primary screen, population patch clamp on CHO cells stably expressing hERG).
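Note: peak tail current of the secondary pulse compared with the same well before compound.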

human ether-à-go-go-related gene (hERG) potassium channel, sequence (Q12809 whole entry, looked up): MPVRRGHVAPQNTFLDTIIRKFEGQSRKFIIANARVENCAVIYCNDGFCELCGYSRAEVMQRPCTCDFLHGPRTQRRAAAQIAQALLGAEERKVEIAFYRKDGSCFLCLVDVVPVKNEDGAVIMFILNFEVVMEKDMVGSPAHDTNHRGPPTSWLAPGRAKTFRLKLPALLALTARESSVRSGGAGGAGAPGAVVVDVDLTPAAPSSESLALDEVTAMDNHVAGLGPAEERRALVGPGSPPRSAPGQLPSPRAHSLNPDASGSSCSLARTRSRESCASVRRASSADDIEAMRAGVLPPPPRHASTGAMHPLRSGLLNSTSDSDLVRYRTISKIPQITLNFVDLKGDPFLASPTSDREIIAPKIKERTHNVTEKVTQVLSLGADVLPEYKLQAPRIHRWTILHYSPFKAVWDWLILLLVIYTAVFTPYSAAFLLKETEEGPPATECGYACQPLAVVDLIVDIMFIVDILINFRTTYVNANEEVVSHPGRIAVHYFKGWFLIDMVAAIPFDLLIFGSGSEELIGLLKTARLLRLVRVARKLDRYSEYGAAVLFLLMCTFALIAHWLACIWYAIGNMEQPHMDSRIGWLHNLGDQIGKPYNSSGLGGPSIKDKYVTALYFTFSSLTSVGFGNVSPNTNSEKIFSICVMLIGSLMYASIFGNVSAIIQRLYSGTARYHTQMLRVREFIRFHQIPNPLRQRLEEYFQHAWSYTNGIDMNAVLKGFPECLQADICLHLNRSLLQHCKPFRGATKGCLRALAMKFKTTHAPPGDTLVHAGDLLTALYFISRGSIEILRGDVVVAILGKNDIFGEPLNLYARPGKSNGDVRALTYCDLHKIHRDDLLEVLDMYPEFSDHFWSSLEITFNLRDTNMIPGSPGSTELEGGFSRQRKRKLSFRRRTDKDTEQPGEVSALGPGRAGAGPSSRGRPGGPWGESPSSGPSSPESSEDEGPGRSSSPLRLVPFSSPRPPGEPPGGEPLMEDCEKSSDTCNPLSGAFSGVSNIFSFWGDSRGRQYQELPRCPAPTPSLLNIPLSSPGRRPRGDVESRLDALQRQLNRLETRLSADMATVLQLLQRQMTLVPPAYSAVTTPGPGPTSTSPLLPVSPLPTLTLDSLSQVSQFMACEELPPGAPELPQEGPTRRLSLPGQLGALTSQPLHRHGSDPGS

SMILES | hERG current change (%, negative = inhibition) at 10uM [%]
CCN(CC)CCn1c(N)cc(=O)[nH]c1=O | 11.6
COc1cc(C(=O)OCC(=O)NCCN2C(=O)CSC2=O)ccc1OCc1c(C)noc1C | 15.8
O=C(NCCc1ccccc1)C1=COCCO1 | 6.86
CC(c1ccccc1)C1CC(=O)N(CC(=O)O)C1=O (stereo not shown) | 16.9
C=CCN=C1N[C@@H](c2cccc(C(F)(F)F)c2)C(C(=O)OC)=C(C)N1CC | -1.72
C=CCNC(=O)CSc1nnc(-c2ccccc2Br)n1-c1cccc(C(F)(F)F)c1 | 1.12
CCN1CCN(C(=O)CN(C)S(=O)(=O)c2ccc(Cl)cc2)CC1 | -35.6
Cc1ccc(C2C3=C(CC(C)(C)CC3=O)OC3=C2C(=O)CC(C)(C)C3)cc1 | 6.28
Nn1c(SCC(=O)Nc2ccc(N3CCOCC3)cc2)nnc1-c1ccccc1F | -9.58
CC(C)OC(=O)C1CC=CCC1C(=O)Nc1ccc(Cl)cc1 (stereo not shown) | -6.02
NNC(=O)CNC(=O)c1ccccc1F | 10.7
O=C1CC(Nc2ccc(N3CCOCC3)cc2)C(=O)N1Cc1ccccc1 (stereo not shown) | 3.46
C=C1C/C(=C/C)C(=O)O[C@@H]2CCN3CC=C(COC(=O)[C@]1(C)O)[C@H]23 | -0.965
CC1CCCC(NC(=O)NC(=O)CCl)C1C (stereo not shown) | 12.7
Cc1nc2ccccc2nc1OCC(=O)NCc1ccc2c(c1)OCO2 | -11.6
O=C(O)c1nc2ccccc2nc1C(=O)O | 14.9
Cc1cc(C)n2nc(SCC(=O)Nc3ccccc3C)nc2n1 | 1.88
CCOC(=O)c1c(NC(=O)CSc2nnc(-c3ccccc3C)n2C)sc(C(C)=O)c1C | -63
CSC1=N/C(=C/c2cccnc2)C(=O)N1Cc1ccc(Cl)cc1 | -27.1
O=C1NC(=Nc2ccccc2)c2ccc([N+](=O)[O-])cc21 | 3.21
O=C(NC1CCCN(Cc2ccc(Cl)cc2)C1)c1c(F)ccc(F)c1F (stereo not shown) | -75.3
CN(CCO)S(=O)(=O)c1ccc2c(c1)C(=NNC(N)=O)c1cc(S(=O)(=O)N(C)CCO)ccc1-2 | 7.97

SMILES | hERG current change (%, negative = inhibition) at 10uM [%]
NC(=O)OCCSc1nnc(-c2cccc(C(N)=S)c2)o1 | 2.14
COc1cccc(N2C(=O)CN(Cc3ccccc3)C2=S)c1 | 6.83
Cc1ccccc1OCc1nc2ccc(S(=O)(=O)N3CCOCC3)cc2[nH]1 | -17.6
CCOCCn1c(SCCCc2ccccc2)nc2c1c(=O)[nH]c(=O)n2C | -2.67
O=[N+]([O-])c1ccc(N2CCN(S(=O)(=O)c3ccc4ccccc4c3)CC2)cc1NCC1CCCO1 (stereo not shown) | 18.2
COc1ccc(OCCn2c(C)c(/C=N/n3cnnc3)c3ccccc32)cc1 | -0.339
COc1ccc(CCc2nnc(CCC(=O)NCCc3ncccc3C)o2)cc1 | -3.34
Cc1ccc(NC(=O)C2C3C=CC4(O3)C2C(=O)N(CCCN2CCCC2)C4C(=O)NC2CCCCC2)cc1Cl (stereo not shown) | 17.5
Cn1cccc1/C=N/N1CCN(Cc2ccccc2)CC1 | -8.12
CN(C)Cc1ccccc1Sc1ccccc1Br | -36.5
COc1ccccc1NC(=O)CSc1ccc(-c2ccc(-n3ccnc3)cc2)nn1 | -3.71
Cc1ccc(CN(CC(=O)NCC2CCCO2)S(=O)(=O)c2ccc(C)cc2)cc1 (stereo not shown) | -1.71
CCn1c(C)nc2cc(C(=O)NNC(=O)Nc3ccc(Cl)cc3)ccc21 | -12.7
O=C(O)C1Cc2ccccc2N2CCCC12 (stereo not shown) | 20
CCC(C(=O)Nc1ccc(C(=O)O)cc1NC(=O)C(CC)c1ccccc1)c1ccccc1 (stereo not shown) | 9.71
CCOC(=O)C(NC(=O)Nc1ccc(C(N)=O)cc1)(c1ccccc1)C(F)(F)F (stereo not shown) | -14.6
CCOc1ccc(/C=C2\SC(=S)N(NS(=O)(=O)c3ccccc3)C2=O)cc1OC | -6.2
Cc1cc(OC(C)C(=O)NCC(O)c2ccccc2)c2c(C)cc(=O)oc2c1 (stereo not shown) | 11
O=C(Nc1ccccc1)ON=C1c2ccccc2-c2ccccc21 | 10.3
C/C(=N\NC(=O)CN1CCCCC1)c1ccccc1O | -2.4
COc1ccc(Cn2c(CCCO)nc3ccccc32)cc1OC | -4.94
Cc1ccnc(NC(=O)c2cccs2)c1 | 12

SMILES | hERG current change (%, negative = inhibition) at 10uM [%]
NC(=O)c1oc2ccccc2c1NC(=O)c1ccc([N+](=O)[O-])o1 | 14.7
O=C(Nc1cccc(-c2nc3ccccc3[nH]2)c1)c1ccco1 | -16.9
COc1ccccc1Oc1nnnn1-c1ccc(C(N)=O)cc1 | 2.96
O=C1c2cccc3c(N4CCCCC4)ccc(c23)C(=O)N1CCO | -0.161
O=C1c2ccccc2CN1CCSC(=S)N1CCOCC1 | -8.59
CCOc1ccc2nc(NC(=O)CSc3nc(SC)ns3)sc2c1 | 0.808
COC(=O)c1ccc(CN2C(=O)c3ccccc3C2=O)cc1 | 8.01
COc1ccccc1C(CNC(=O)c1cc(S(=O)(=O)N2CCOCC2)ccc1C)N1CCCC1 (stereo not shown) | 2.53
CNNC(=O)C(=O)NNS(=O)(=O)c1ccccc1 | 10.1
COc1ccc(C(=O)NC2CC2)cc1OC1CCN(Cc2cnn(C)c2C)CC1 | -27.2
CC(=O)Nc1cc2c(cc1NC(=O)Cn1nc(-c3ccc(F)cc3)ccc1=O)OCCO2 | -8.86
CC1CC(C)CN(C(=O)c2ccc3c(=O)n(Cc4ccc5c(c4)OCO5)c(=S)[nH]c3c2)C1 (stereo not shown) | 9.38
OC[C@H]1NC[C@@H](O)[C@@H]1O | 18.7
COc1ccc(CCNC(=O)c2cc3c(=O)n4cccc(C)c4nc3n(CCCN3CCOCC3)c2=N)cc1 | -76.2
CC(C)(C)N1C(=O)c2ccc(C(=O)Nc3ccc(-c4nc5ccccc5[nH]4)cc3)cc2C1=O | 16.8
CC(C(=O)Nc1ccon1)N1C(=O)c2ccccc2S1(=O)=O (stereo not shown) | 1.49
Cl.c1ccc(C(c2ccccc2)N2CCN(Cc3nnnn3C3CCCC3)CC2)cc1 | -9.83
O=C(c1ccc2nc(N3CCOCC3)sc2c1)N1CCCC1 | -10.8
CC(=O)Nc1ccc(S(=O)(=O)N2CCSC2C(=O)O)cc1 (stereo not shown) | 0.312
FC(F)(F)c1ccc(-c2nnc(-c3cccnc3)o2)cc1 | 7.74
CCOC(=O)Cc1cnc(NC(=O)CSc2nc(C)cc(C)n2)s1 | 22
Cc1noc(C)c1COC(=O)C1CC(O)CN1S(=O)(=O)c1ccc(Cl)cc1 (stereo not shown) | -8.48

SMILES | hERG current change (%, negative = inhibition) at 10uM [%]
CCc1nnc(NC(=O)CCN2C(=O)C3CCCCC3C2=O)s1 (stereo not shown) | 4.31
CSc1ccccc1COC(=O)Nc1ccccc1C | -16.9
COc1cc2c(cc1OC)CN(C1CCC(C)CC1)CC2 (stereo not shown) | 4.15
CN(C(=O)COC(=O)c1ccccc1NCCO)C1CCS(=O)(=O)C1 (stereo not shown) | -12.9
CCN(CC)CCCNC(=O)Cn1cnc2sc(C)c(S(=O)(=O)N3CCC(C)CC3)c2c1=O | 11.1
COc1ccc(-c2nnc(SC(C)C(=O)NCc3ccc4c(c3)OCO4)n2Cc2ccco2)cc1 (stereo not shown) | -55.1
COc1ccc(NC(=S)N(CCCN2CCCC2)Cc2cccn2Cc2ccc(Cl)cc2)cc1Cl | -6.98
COc1ccc(C(CC(=O)O)c2ccc3c(c2)OCO3)cc1 (stereo not shown) | 14.7
CC(C)NC(=O)CCNS(=O)(=O)c1ccc(Br)cc1 | 7.82
CNC(=O)c1sc2nc(-c3ccc(OC)cc3)cn2c1C | -8.45
COCCn1c(Br)nc2c1c(=O)n(C)c(=O)n2C | 8.14
CC(=O)Nc1ccc(NC(=O)CSc2nnc(-c3cc(C)[nH]n3)n2N)cc1 | 3.51
Cc1ccc(NC(=S)N2CCCC(O)C2)cc1 (stereo not shown) | 2.57
COc1cccc(OCc2cc(C(=O)NCCN3CCCCC3CO)no2)c1 (stereo not shown) | 2.5
COc1ccc(S(=O)(=O)N2CCN(C(=S)NCCc3ccccc3)CC2)cc1 | 13.9
Nc1c(Cl)cc(-c2csc(N3CCCC3c3nc4cc(Cl)c(Cl)cc4n3CCCO)n2)cc1Cl (stereo not shown) | -2.8
COc1cccc(OCc2cc(C(=O)NC3CCOCC3)no2)c1 | 6.95
CCC(=O)Nc1nnc(CSCc2ccccc2)s1 | 0.817
COc1ccc2cc(C(=O)C3CCCN(C(=O)C4=NN(C)C(=O)CC4)C3)ccc2c1 (stereo not shown) | -23.8
CCN(CC(=O)Nc1ccc2c(c1)OCCO2)C(=O)c1cccc(S(=O)(=O)N2CCOCC2)c1 | 7.97
COC(=O)C(Cc1cnc(Cl)s1)(C(=O)OC)c1ccc(C(F)(F)F)cc1[N+](=O)[O-] | -2.69
CC(C)c1nc(SCC(=O)Nc2ccc(N3CCOCC3)cc2)c2ccccc2n1 | -7.78
